Numbering of substitutions follows the chain as printed; changes in the protein carry UniProt numbers. The list shows a part of the results.
T1: RBFOX1 RRM (Homo sapiens, UniProt Q9NWB1 109-208)
T1 sequence: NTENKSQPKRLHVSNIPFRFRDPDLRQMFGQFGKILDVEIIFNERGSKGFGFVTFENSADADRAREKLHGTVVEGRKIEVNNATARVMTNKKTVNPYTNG

B1: GUCAGAG (DNA:RNA)
RNA: GGGAGACCGGAAUUCAGAUUGUCCGUCAGAGUUAAAUCCCGUCGUAGCCACCA
DNA 1: CAATCTGAATTCCGGTCTCCC
DNA 2: TGGTGGCTACGACGGGATT
B2: CCUAACC (DNA:RNA)
RNA: B1 RNA with G25C, U26C, C27U, G29A, A30C, G31C
DNA 1: CAATCTGAATTCCGGTCTCCC
DNA 2: TGGTGGCTACGACGGGATT
B3: GGCUCAG (DNA:RNA)
RNA: B1 RNA with U26G, A28U, G29C
DNA 1: CAATCTGAATTCCGGTCTCCC
DNA 2: TGGTGGCTACGACGGGATT
B4: ACCCUGA (DNA:RNA)
RNA: B1 RNA with G25A, U26C, A28C, G29U, A30G, G31A
DNA 1: CAATCTGAATTCCGGTCTCCC
DNA 2: TGGTGGCTACGACGGGATT
B5: UCGGUUU (DNA:RNA)
RNA: GGGAGACCGGAAUUCAGAUUGUCCUCGGUUUUUAAAUCCCGUCGUAGCCACCA
DNA 1: CAATCTGAATTCCGGTCTCCC
DNA 2: TGGTGGCTACGACGGGATT
B6: GACUAUU (DNA:RNA)
RNA: B1 RNA with U26A, A28U, G29A, A30U, G31U
DNA 1: CAATCTGAATTCCGGTCTCCC
DNA 2: TGGTGGCTACGACGGGATT
B7: UCUUUUG (DNA:RNA)
RNA: B5 RNA with G27U, G28U, U31G
DNA 1: CAATCTGAATTCCGGTCTCCC
DNA 2: TGGTGGCTACGACGGGATT
B8: CGAUCCG (DNA:RNA)
RNA: B1 RNA with G25C, U26G, C27A, A28U, G29C, A30C
DNA 1: CAATCTGAATTCCGGTCTCCC
DNA 2: TGGTGGCTACGACGGGATT
B9: UGAAUCC (DNA:RNA)
RNA: B5 RNA with C26G, G27A, G28A, U30C, U31C
DNA 1: CAATCTGAATTCCGGTCTCCC
DNA 2: TGGTGGCTACGACGGGATT
B10: AGCCUGU (DNA:RNA)
RNA: B5 RNA with U25A, C26G, G27C, G28C, U30G
DNA 1: CAATCTGAATTCCGGTCTCCC
DNA 2: TGGTGGCTACGACGGGATT
B11: GUCCGCG (DNA:RNA)
RNA: B1 RNA with A28C, A30C
DNA 1: CAATCTGAATTCCGGTCTCCC
DNA 2: TGGTGGCTACGACGGGATT
B12: ACAAUGG (DNA:RNA)
RNA: B1 RNA with G25A, U26C, C27A, G29U, A30G
DNA 1: CAATCTGAATTCCGGTCTCCC
DNA 2: TGGTGGCTACGACGGGATT
B13: AUCCACC (DNA:RNA)
RNA: B1 RNA with G25A, A28C, G29A, A30C, G31C
DNA 1: CAATCTGAATTCCGGTCTCCC
DNA 2: TGGTGGCTACGACGGGATT
B14: UCGCACG (DNA:RNA)
RNA: B5 RNA with G28C, U29A, U30C, U31G
DNA 1: CAATCTGAATTCCGGTCTCCC
DNA 2: TGGTGGCTACGACGGGATT
B15: GAACUAA (DNA:RNA)
RNA: B1 RNA with U26A, C27A, A28C, G29U, G31A
DNA 1: CAATCTGAATTCCGGTCTCCC
DNA 2: TGGTGGCTACGACGGGATT
B16: CGACUUC (DNA:RNA)
RNA: B5 RNA with U25C, C26G, G27A, G28C, U31C
DNA 1: CAATCTGAATTCCGGTCTCCC
DNA 2: TGGTGGCTACGACGGGATT
B17: AGAAACG (DNA:RNA)
RNA: B1 RNA with G25A, U26G, C27A, G29A, A30C
DNA 1: CAATCTGAATTCCGGTCTCCC
DNA 2: TGGTGGCTACGACGGGATT
B18: ACUUGCU (DNA:RNA)
RNA: B5 RNA with U25A, G27U, G28U, U29G, U30C
DNA 1: CAATCTGAATTCCGGTCTCCC
DNA 2: TGGTGGCTACGACGGGATT
B19: GGACACG (DNA:RNA)
RNA: B1 RNA with U26G, C27A, A28C, G29A, A30C
DNA 1: CAATCTGAATTCCGGTCTCCC
DNA 2: TGGTGGCTACGACGGGATT
B20: GAGCAGC (DNA:RNA)
RNA: B1 RNA with U26A, C27G, A28C, G29A, A30G, G31C
DNA 1: CAATCTGAATTCCGGTCTCCC
DNA 2: TGGTGGCTACGACGGGATT
B21: AGCCACA (DNA:RNA)
RNA: B1 RNA with G25A, U26G, A28C, G29A, A30C, G31A
DNA 1: CAATCTGAATTCCGGTCTCCC
DNA 2: TGGTGGCTACGACGGGATT
B22: AGGUAUG (DNA:RNA)
RNA: B5 RNA with U25A, C26G, G28U, U29A, U31G
DNA 1: CAATCTGAATTCCGGTCTCCC
DNA 2: TGGTGGCTACGACGGGATT
B23: UAAAAGG (DNA:RNA)
RNA: B1 RNA with G25U, U26A, C27A, G29A, A30G
DNA 1: CAATCTGAATTCCGGTCTCCC
DNA 2: TGGTGGCTACGACGGGATT
B24: UAAUUUG (DNA:RNA)
RNA: B5 RNA with C26A, G27A, G28U, U31G
DNA 1: CAATCTGAATTCCGGTCTCCC
DNA 2: TGGTGGCTACGACGGGATT
B25: CCAAGCA (DNA:RNA)
RNA: B1 RNA with G25C, U26C, C27A, A30C, G31A
DNA 1: CAATCTGAATTCCGGTCTCCC
DNA 2: TGGTGGCTACGACGGGATT
B26: AUCCAUC (DNA:RNA)
RNA: B1 RNA with G25A, A28C, G29A, A30U, G31C
DNA 1: CAATCTGAATTCCGGTCTCCC
DNA 2: TGGTGGCTACGACGGGATT
B27: GUCAAGG (DNA:RNA)
RNA: B1 RNA with G29A, A30G
DNA 1: CAATCTGAATTCCGGTCTCCC
DNA 2: TGGTGGCTACGACGGGATT
B28: UUUGGUG (DNA:RNA)
RNA: B1 RNA with G25U, C27U, A28G, A30U
DNA 1: CAATCTGAATTCCGGTCTCCC
DNA 2: TGGTGGCTACGACGGGATT
B29: GUCAGAC (DNA:RNA)
RNA: B1 RNA with G31C
DNA 1: CAATCTGAATTCCGGTCTCCC
DNA 2: TGGTGGCTACGACGGGATT
B30: CAAUUCC (DNA:RNA)
RNA: B5 RNA with U25C, C26A, G27A, G28U, U30C, U31C
DNA 1: CAATCTGAATTCCGGTCTCCC
DNA 2: TGGTGGCTACGACGGGATT
B31: AAACAUG (DNA:RNA)
RNA: B1 RNA with G25A, U26A, C27A, A28C, G29A, A30U
DNA 1: CAATCTGAATTCCGGTCTCCC
DNA 2: TGGTGGCTACGACGGGATT

molecular target: T1, RBFOX1 RRM; assay: EMSA; HiTS-Eq, 1 nM pool, 10 min; buffer printed only for the single-RNA assays: 10 mM Tris pH 7.5, 150 mM NaCl, 3.4 mM EDTA, 0.001% NP-40, 30 C; conditions: tags: His6 N-terminal (pET28a); label: 5' 32P
Outline: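 Purified wild-type or mutant RbFox RRM at increasing concentrations was equilibrated with 1 nM of 5′-radiolabelled RNA carrying 7 randomized nucleotides for 10 min in 50 µL. Unbound RNA was separated by 8% native PAGE and sequenced. Relative association constants came from read-count changes of each RNA species compared with the control reaction, normalised to the cognate motif.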

Question: For B1, which binding signal is on record?
Answer: 0.0183 KA relative to UGCAUGU

Question: For B2, which binding signal is on record?
Answer: 0.00241 KA relative to UGCAUGU

Question: Which binding signal does the source give for B3 here?
Answer: 0.0135 KA relative to UGCAUGU

Question: B4 was tested. Which binding signal did it give?
Answer: 0.00529 KA relative to UGCAUGU

Question: With B5 as the binder, how does the binding signal read?
Answer: 0.0186 KA relative to UGCAUGU

Question: For B6, which binding signal is on record?
Answer: 0.00334 KA relative to UGCAUGU

Question: Which binding signal does the source give for B7 here?
Answer: 0.0224 KA relative to UGCAUGU

Question: How did the binding signal turn out when B8 was run?
Answer: 0.0101 KA relative to UGCAUGU

Question: Which binding signal does the source give for B9 here?
Answer: 0.0114 KA relative to UGCAUGU

Question: With B10 as the binder, how does the binding signal read?
Answer: 0.0167 KA relative to UGCAUGU

Question: B11 was tested. Which binding signal did it give?
Answer: 0.014 KA relative to UGCAUGU

Question: With B12 as the binder, how does the binding signal read?
Answer: 0.00776 KA relative to UGCAUGU

Question: How did the binding signal turn out when B13 was run?
Answer: 0.000451 KA relative to UGCAUGU

Question: How did the binding signal turn out when B14 was run?
Answer: 0.0586 KA relative to UGCAUGU

Question: For B15, which binding signal is on record?
Answer: 0.00238 KA relative to UGCAUGU

Question: B16 was tested. Which binding signal did it give?
Answer: 0.01 KA relative to UGCAUGU

Question: Which binding signal does the source give for B17 here?
Answer: 0.0036 KA relative to UGCAUGU

Question: B18 was tested. Which binding signal did it give?
Answer: 0.00904 KA relative to UGCAUGU

Question: With B19 as the binder, how does the binding signal read?
Answer: 0.022 KA relative to UGCAUGU

Question: How did the binding signal turn out when B20 was run?
Answer: 0.00993 KA relative to UGCAUGU

Question: Which binding signal does the source give for B21 here?
Answer: 0.00408 KA relative to UGCAUGU

Question: B22 was tested. Which binding signal did it give?
Answer: 0.0195 KA relative to UGCAUGU

Question: Which binding signal does the source give for B23 here?
Answer: 0.00376 KA relative to UGCAUGU

Question: For B24, which binding signal is on record?
Answer: 0.0234 KA relative to UGCAUGU

Question: How did the binding signal turn out when B25 was run?
Answer: 0.0141 KA relative to UGCAUGU

Question: Which binding signal does the source give for B26 here?
Answer: 0.000667 KA relative to UGCAUGU

Question: How did the binding signal turn out when B27 was run?
Answer: 0.00703 KA relative to UGCAUGU

Question: With B28 as the binder, how does the binding signal read?
Answer: 0.0303 KA relative to UGCAUGU

Question: B29 was tested. Which binding signal did it give?
Answer: 0.0121 KA relative to UGCAUGU

Question: How did the binding signal turn out when B30 was run?
Answer: 0.000827 KA relative to UGCAUGU

Question: How did the binding signal turn out when B31 was run?
Answer: 0.00224 KA relative to UGCAUGU

Source: article PMC9911399, “Two distinct binding modes provide the RNA-binding protein RbFox with extraordinary sequence specificity”
